Measurements: the supplement of paper PMC3334620
Over roughly 33,000 sequences, “E-score (-0.5 to 0.5)” has its median near -0.016; the highest 2% begin near 0.31. The list shows a part of the results.

molecular target: Cst6 (UniProt P40535); assay: PBM E-score (8-mer binding enrichment) (E-score (-0.5 to 0.5)); higher = stronger / more preferred TF binding; most listed sequences are background and not binding sites; settings: protein concentration: 200 nM; construct: GST-DNA-binding domain
In short: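 E-scores (a modified Wilcoxon-Mann-Whitney statistic) were assigned by the Universal PBM Analysis Suite to every ungapped eight-base word pooled with its reverse complement. The input came from universal all-10-mer Agilent arrays made double-stranded by primer extension and probed with GST-tagged yeast transcription factors at about 100-200 nM. Fluorescent anti-GST detected bound protein, and masliner normalised the scans.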

Sequence | PBM E-score
CTCGATTC | -0.0536
GCAAGTAA | 0.0157
ATGGCTTC | -0.0679
ACTGAGAC | -0.0531
ATTACGCC | 0.254
AAATATCC | 0.101
ACGCCGAC | 0.0423
CGGGTGGA | -0.178
TCGGTTAA | 0.0115
CTGCGAGC | -0.0539
CTGCCGGC | -0.276
GTGGAACA | 0.033
AACTACTT | 0.0798
CAAGCGGG | -0.239
GGGGTCAC | -0.214
AGAAATTA | 0.272
AGAGGAGA | -0.248
CAACGAAC | 0.0576
CACAGGTA | 0.0773
CTACCTAC | -0.0461
TAGATTGA | 0.213
CCATATCG | -0.0338

Sequence | PBM E-score
ACTAAGCC | -0.0814
ACCCTTCA | -0.156
CCTTATAG | -0.0102
TCTCCCCA | -0.262
ATGCCGGA | -0.121
GGCCGGTA | 0.00332
TAAGGGTA | -0.07
CAATAACC | 0.136
GAAACAGA | 0.169
TACCCACA | -0.0986
GGAGCAGA | -0.114
AGAAGGTC | -0.089
GAGGTGGA | -0.204
GCCGAGGA | -0.0119
ACCGAAGG | -0.0936
AGAAGTAT | 0.229
CGCGTAGA | -0.202
AGCACGGG | -0.201
CATACCTA | -0.0413
CAATAGAG | 0.0512
ACGTGCCG | 0.112
TCGTGACA | 0.189

Sequence | PBM E-score
CCCCCGGG | -0.278
CTGGAAAA | 0.121
CTGCGGAC | -0.114
CTAGTTAA | 0.0732
AACTCGGC | 0.0742
GGGTCCAC | -0.353
ACTGCAGA | -0.0111
ACCACAGC | -0.202
CCTCGTCG | -0.0925
CAGGGGTC | -0.25
TGGAGCCA | -0.23
AGATAGGC | -0.0122
TACTAAGA | 0.0381
AAGACTGG | -0.0781
CGACAGAG | -0.315
CGAGTCCG | -0.126
ATGATTCC | 0.152
GAGTCGAA | 0.0113
GGCGCGTA | -0.0745
GATATTCC | 0.121
CCCCCCTA | -0.346
CGCATATA | 0.0594

Sequence | PBM E-score
TATGCACA | -0.0713
ACTTTACC | 0.0757
TGGGATAA | 0.00606
TCCTAGGA | -0.186
CCTGATAG | -0.255
ATCGGTCC | -0.253
AGAGCTCG | -0.189
GTCTCGGA | -0.144
AGGCTTGC | -0.27
CTTCAGGA | 0.0286
AGTCAAAA | 0.135
CCAGCATA | 0.0134
ACACTTCA | -0.0137
ACCGCCAG | -0.0151
AAGTGACG | 0.45
GAAAGTAA | 0.0654
ACATCGGT | -0.184
AAGAGCAA | -0.307
CCCATAGA | -0.319
CGCTAAAA | 0.00907
